Results published in PubChem BioAssay AID1671194 (National Center for Advancing Translational Sciences (NCATS), 2021).
About 240 (0.17%) of roughly 140,000 compounds were called active. The shares of active, inactive and inconclusive entries below differ from those in the screen. Calls follow the shape of the dose curve; as a rule, active = well fitted inhibition curve with a large enough effect; inconclusive = small, poorly fitted or top-dose-only effect; inactive = no such curve, though single readings can be large or run the other way. Where the call is inconclusive, the potency comes from a doubtful curve fit.

test: Primary qHTS assay for inhibitors of alpha-synuclein gene (SNCA) expression; settings: HEK-293 SNCA-luciferase knock-in, luminescence, 24 h; series mostly up to 57.2 µM; also: nearly all actives have a fitted effect of over 45% in size
Potency is read from the fitted curve at half-maximal effect; tags tell the direction and shape of the fitted curve.

Row | Structure (SMILES) | Potency
1 | CN(C)C(=O)c1cccc2c1CCN2C(=O)C1CC1 | inactive
2 | Cc1ccc(C2c3[nH]c4ccccc4c3CCN2C(=O)c2cccc(C)c2)cc1 (centres undefined) | inconclusive: 39.8 µM [inhibitor, single point]
3 | CCOc1ccccc1C1NC(=O)N(CC(=O)NCc2ccc(F)cc2)C2=C1C(=O)OC2 (centres undefined) | inconclusive: 17.8 µM [inhibitor, single point]
4 | CCOc1cc(=O)n2c(c1C(=O)N1CCN(c3ccc(F)cc3)CC1)CCCCC2 | inconclusive: 0.355 µM [inhibitor, full curve, poor fit]
5 | COc1ccc(N2CCN(C(=O)Cn3ccn4nc(-c5ccccc5)c(CO)c4c3=O)CC2)cc1 | inconclusive: 3.16 µM [inhibitor, partial curve, poor fit]
6 | CCC(=O)N1CCc2cc(Br)cc(S(=O)(=O)CCC(=O)NCc3ccc(Cl)cc3)c21 | inconclusive: 22.4 µM [inhibitor, single point]
7 | O=C(NCCN1CCOCC1)c1cn2cc(-c3ccc(C(F)(F)F)cc3)sc2n1 | inactive
8 | CCOc1ccccc1NC(=O)CN(C)S(=O)(=O)c1ccc2nc(C)sc2c1 | inconclusive: 0.178 µM [inhibitor, partial curve, poor fit]
9 | CCN(C(=O)C1CCCN(S(=O)(=O)c2c(C)noc2/C=C/N(C)C)C1)c1cccc(C)c1 (centres undefined) | inconclusive: 1.58 µM [inhibitor, partial curve, poor fit]
10 | O=C(NCc1ccc(Cl)cc1)c1cccn2cncc12 | inactive
11 | Fc1ccc(Nc2c3c(nc4ccccc24)CCC3)cc1 | inconclusive: 39.8 µM [inhibitor, single point]
12 | CC(NC(=O)c1noc(-c2ccc(F)cc2)n1)c1ccc(F)cc1 (centres undefined) | inconclusive: 7.08 µM [inhibitor, single point]
13 | CN1CCC(Cc2ccc(C(=O)N3CCCC3)cc2)CC1 | inactive
14 | COCCN1CCNc2nc(COc3ccc(Oc4ccccc4)cc3)n(Cc3ccccc3)c2C1=O | inconclusive: 12.6 µM [inhibitor, partial curve]
15 | O=C(O)[C@@H]1CN(Cc2ccccc2)C[C@@H]1C(=O)N1CCCCC1 | inconclusive: 39.8 µM [inhibitor, single point]
16 | COC(=O)c1scc(-c2ccc(C)cc2)c1S(=O)(=O)Nc1cc(C)c(Cl)cc1OC | inconclusive: 39.8 µM [inhibitor, single point]
17 | COc1ccc(C)c2sc(N(Cc3cccnc3)C(=O)c3cccs3)nc12 | inconclusive: 10 µM [inhibitor, partial curve, poor fit]
18 | O=C1Nc2ccc(-c3cccc(C(F)(F)F)c3)cc2C(=O)N2CCN(C(=O)COc3ccccc3)C[C@H]12 | inconclusive: 8.91 µM [inhibitor, single point]
19 | COC(=O)c1c(C)oc2ccc(N(C(=O)c3ccncc3)S(=O)(=O)c3ccc(Br)cc3)cc12 | inconclusive: 10 µM [inhibitor, single point]
20 | CN(C)C[C@@H]1CN(c2ccccn2)C[C@H]1NC(=O)CC1=CCCCC1 | inactive
21 | O=C1Nc2ccc(I)cc2C1=Cc1cc(Br)c(O)c(Br)c1 | inactive
22 | CC(C)NC(=O)CN1CCN(c2nccc(N3CCC(O)CC3)n2)CC1 | inconclusive: 4.47 µM [inhibitor, partial curve]

Row | Structure (SMILES) | Potency
23 | Cc1ccc(NC(=O)Cn2c(=O)n(Cc3ccccc3)c(=O)c3c(C)c(C(=O)N(C)C)sc32)c(C)c1 | inconclusive: 3.98 µM [inhibitor, full curve, poor fit]
24 | Cc1nnn2c(C(=O)Nc3ccc(Cl)nc3)cccc12 | inactive
25 | CCOC(=O)c1ccc(N2C(=O)c3n[nH]c(-c4ccco4)c3C2c2ccccc2OC)cc1 (centres undefined) | inconclusive: 35.5 µM [inhibitor, partial curve, poor fit]
26 | O=C(NCC1CCCO1)c1cc(-c2ccccc2F)cc2c1OCCN2Cc1cccnc1 (centres undefined) | inactive
27 | Cc1ccc(-c2noc(-c3ccc(N4CCCC4)c([N+](=O)[O-])c3)n2)cc1 | inconclusive: 22.4 µM [inhibitor, partial curve, poor fit]
28 | COc1ccc(NC(=O)C2CCN(c3cc(C)nc4c(-c5ccc(Cl)cc5)c(C)nn34)CC2)cc1 | inactive
29 | O=C(NCCCc1ccccc1)C1CCCN(Cc2cccc(-c3cccs3)c2)C1 (centres undefined) | inactive
30 | O=C(c1cncc(Br)c1)N1CCC(n2c(=O)[nH]c3ccccc32)CC1 | inconclusive: 10 µM [inhibitor, partial curve, poor fit]
31 | CCOc1ccc(C(=O)Nc2ccc3c(c2)CCC(=O)N3CC(C)C)cc1 | inconclusive: 39.8 µM [inhibitor, single point]
32 | CO[C@@]12[C@H](COC(N)=O)C3=C(C(=O)C(C)=C(N)C3=O)N1C[C@@H]1N[C@@H]12 | inconclusive: 7.64 µM [inhibitor, full curve, poor fit]
33 | Cc1ccccc1CN1CCCN(CC(=O)Nc2ccc(F)cc2)S1(=O)=O | inconclusive: 25.1 µM [inhibitor, single point]
34 | CCOC(=O)C1CCN(Cc2cn3c(-c4ccc(OC)cc4)nnc3s2)CC1 | inactive
35 | COCCNC(=O)C[C@@H]1C[C@H]2O[C@H](CN)[C@@H](O)[C@H]2O1 | inactive
36 | COc1ccc2c(C)c(C(=O)NCc3nc(-c4ncccn4)no3)oc2c1 | inactive
37 | CCOc1cccc2sc(NC(=O)c3ccc(S(=O)(=O)N4CCCCC4C)cc3)nc12 (centres undefined) | inconclusive: 11.2 µM [inhibitor, partial curve, poor fit]
38 | Cc1ccc2c(C(=O)NCc3ccc(F)cc3Cl)cc(NC(=O)C(C)C)cc2n1 | inconclusive: 10 µM [inhibitor, partial curve, poor fit]
39 | C=CCN(C)C(=O)[C@@H]1Cc2cn(Cc3cc(C)on3)c3cccc(c23)[C@H](CC(C)C)N1 | inactive
40 | CCc1nc2nccc(-c3cc(OC)c(OC)c(OC)c3)n2n1 | inactive
41 | CCOC(=O)c1c(C)[nH]c(C)c1S(=O)(=O)N1CCN(c2cc(Cl)ccc2C)CC1 | inconclusive: 31.6 µM [inhibitor, single point]
42 | CCN(CC)CCCNC(=O)c1ccc2c(c1)sc1nc(-c3ccc(C)cc3)cn12 | inconclusive: 39.8 µM [inhibitor, single point]
43 | COc1ccc(-c2nc3ccccc3o2)cc1NC(=O)c1cccnc1 | inactive
44 | CN1CCOc2c(C(=O)NCC[S+](C)(=O)[O-])cc(-c3ccccc3)cc21 | inactive

Row | Structure (SMILES) | Potency
45 | Cc1cc(C)cc(N(CC(=O)Nc2c(C)cc(C)cc2C)S(=O)(=O)c2c(C)nn(C)c2C)c1 | inconclusive: 7.08 µM [inhibitor, single point]
46 | COCCN1C(=O)[C@H]2CN(Cc3ccc(F)c(Br)c3)C[C@H]2C1=O | inconclusive: 25.1 µM [inhibitor, single point]
47 | COc1ccc(-c2nc(C)nc3c2CN(C(=O)Nc2ccc(Cl)cc2)CC3)cc1 | inactive
48 | CN1CCN(C(=O)c2ccc3oc(-c4ccncc4)nc3c2)CC1 | inactive
49 | Cc1ccc(-n2ncc3c(NCCCN(C)C)ncnc32)cc1Cl | inconclusive: 39.8 µM [inhibitor, single point]
50 | COc1ccccc1-c1cc(N2CCN(c3ccccn3)CC2)c2onc(C)c2n1 | inconclusive: 56.2 µM [inhibitor, single point]
51 | Cc1nn(-c2ccccc2)c2nc(C3CC3)cc(C(=O)Nc3cccc(F)c3)c12 | inconclusive: 39.8 µM [inhibitor, single point]
52 | CCO[C@H]1C[C@@H](O)C12CCN(C(=O)c1cc(S(N)(=O)=O)ccc1F)CC2 | inconclusive: 8.91 µM [inhibitor, full curve, poor fit]
53 | CCc1noc(-c2nc(-c3cc(OC)c(OC)c(OC)c3)no2)n1 | inactive
54 | Cc1ccc(Sc2c(C)nn(C(C)(C)C)c2OC(=O)CC(C)C)cc1 | inconclusive: 39.8 µM [inhibitor, single point]
55 | CCCCN1C(=O)c2[nH]nc(-c3ccccc3O)c2C1c1ccc(OCc2ccccc2)c(OC)c1 (centres undefined) | inconclusive: 39.8 µM [inhibitor, single point]
56 | CC1=C[C@@H](CNCc2ccccn2)[C@H](C(C)C)C[C@H]1Cc1nnc(-c2ccccc2F)o1 | inconclusive: 3.55 µM [inhibitor, partial curve, poor fit]
57 | COc1ccc2c(c1)c1c(c(=O)n(-c3cc(Cl)ccc3C)c(=O)n1CC(=O)N1CCCC1)n2C | inconclusive: 2.24 µM [inhibitor, full curve]
58 | CCn1nccc1C(=O)N1CCC(c2nc(C3CCOCC3)no2)CC1 | inconclusive: 2.24 µM [inhibitor, single point]
59 | C=CCN1C[C@@]2(C(=O)O)CN(c3nccc4ccccc34)C[C@H]2C1=O | inactive
60 | CCCCn1cc2c(c1-c1ccc(Br)cc1)c(=O)n(C)c(=O)n2C | inconclusive: 0.631 µM [inhibitor, partial curve, poor fit]
61 | O=C1CCC2(C(=O)NCCCN3CCOCC3)CCCC=C2N1c1ccccc1 (centres undefined) | inactive
62 | CSc1ccc(C2c3c(-c4ccccc4O)n[nH]c3C(=O)N2Cc2ccncc2)cc1 (centres undefined) | inconclusive: 8.91 µM [inhibitor, partial curve, poor fit]
63 | CCc1ccc(NC(=O)C2CCCN(S(=O)(=O)c3ccc4[nH]c(=O)ccc4c3)C2)cc1 (centres undefined) | inconclusive: 31.6 µM [inhibitor, partial curve, poor fit]
64 | Cc1cnccc1N1CCCN(C(=O)c2cccc(C3CCCNC3)c2)CC1 (centres undefined) | inconclusive: 4.47 µM [inhibitor, full curve, poor fit]
